Data taken from PMC11514477.
Results are given in words; binding and its absence hold for the method and conditions named. Binding seen in cells or lysates may run through a third protein. Some results given as binding are weak or reduced against the parent protein; the word gives no strength.

Sequences of proteins named here, by UniProt entry; tags and fusion partners are left off. A change or cut given only in a name is not applied to a line headed by its entry. A line that says so, or that is headed by a name, gives the form on record, which may keep a tag or linker.
macroH2A1.2-GFP (Q9QZQ8-1, form named): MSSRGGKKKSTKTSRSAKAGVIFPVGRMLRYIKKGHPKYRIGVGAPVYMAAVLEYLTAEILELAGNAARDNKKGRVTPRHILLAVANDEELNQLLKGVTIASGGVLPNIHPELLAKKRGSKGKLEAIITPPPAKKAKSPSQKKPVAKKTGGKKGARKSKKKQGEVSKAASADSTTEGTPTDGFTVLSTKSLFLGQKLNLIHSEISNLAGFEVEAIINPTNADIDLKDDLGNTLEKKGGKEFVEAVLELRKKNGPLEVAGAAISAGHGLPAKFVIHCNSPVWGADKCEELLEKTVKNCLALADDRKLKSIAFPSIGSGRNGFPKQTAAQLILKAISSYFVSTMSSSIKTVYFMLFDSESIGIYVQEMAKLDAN
UniProt Q8CCK0: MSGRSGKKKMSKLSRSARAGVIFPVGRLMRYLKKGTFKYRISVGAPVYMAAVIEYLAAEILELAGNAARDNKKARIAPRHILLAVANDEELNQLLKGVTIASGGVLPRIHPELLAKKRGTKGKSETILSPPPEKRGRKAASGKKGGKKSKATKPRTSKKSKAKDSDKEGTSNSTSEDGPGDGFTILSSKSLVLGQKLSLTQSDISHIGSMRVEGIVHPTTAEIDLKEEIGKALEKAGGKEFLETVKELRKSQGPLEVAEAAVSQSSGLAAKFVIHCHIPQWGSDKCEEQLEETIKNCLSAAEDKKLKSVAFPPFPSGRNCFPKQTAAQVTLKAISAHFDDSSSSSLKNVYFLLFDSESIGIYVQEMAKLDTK
UniProt P97310: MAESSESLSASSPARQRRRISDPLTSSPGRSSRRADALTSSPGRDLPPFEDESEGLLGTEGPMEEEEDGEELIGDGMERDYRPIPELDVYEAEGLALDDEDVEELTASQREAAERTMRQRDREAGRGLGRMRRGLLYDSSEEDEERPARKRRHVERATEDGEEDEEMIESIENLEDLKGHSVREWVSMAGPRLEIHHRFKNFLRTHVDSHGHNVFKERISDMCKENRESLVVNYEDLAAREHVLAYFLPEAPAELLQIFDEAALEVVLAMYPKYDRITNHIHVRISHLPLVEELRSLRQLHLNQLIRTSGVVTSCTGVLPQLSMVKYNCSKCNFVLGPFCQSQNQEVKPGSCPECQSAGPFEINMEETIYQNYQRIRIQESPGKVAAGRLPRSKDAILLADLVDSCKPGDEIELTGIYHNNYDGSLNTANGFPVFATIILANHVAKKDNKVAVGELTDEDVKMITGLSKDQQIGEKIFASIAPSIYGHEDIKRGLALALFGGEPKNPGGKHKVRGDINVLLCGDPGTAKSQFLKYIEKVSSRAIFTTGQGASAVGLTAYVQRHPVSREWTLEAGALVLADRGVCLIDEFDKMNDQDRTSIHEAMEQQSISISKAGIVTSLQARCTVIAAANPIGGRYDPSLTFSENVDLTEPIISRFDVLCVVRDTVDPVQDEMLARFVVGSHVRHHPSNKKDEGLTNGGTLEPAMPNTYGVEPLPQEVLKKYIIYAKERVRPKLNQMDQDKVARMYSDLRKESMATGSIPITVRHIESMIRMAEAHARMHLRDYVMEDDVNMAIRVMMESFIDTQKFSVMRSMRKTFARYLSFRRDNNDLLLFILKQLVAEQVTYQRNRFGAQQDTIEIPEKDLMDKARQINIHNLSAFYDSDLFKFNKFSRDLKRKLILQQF

T1: Mcm4 (subunit of the Mcm DNA helicase complex) (mouse (endogenous in C2C12)) (UniProt P49717)
T1 sequence: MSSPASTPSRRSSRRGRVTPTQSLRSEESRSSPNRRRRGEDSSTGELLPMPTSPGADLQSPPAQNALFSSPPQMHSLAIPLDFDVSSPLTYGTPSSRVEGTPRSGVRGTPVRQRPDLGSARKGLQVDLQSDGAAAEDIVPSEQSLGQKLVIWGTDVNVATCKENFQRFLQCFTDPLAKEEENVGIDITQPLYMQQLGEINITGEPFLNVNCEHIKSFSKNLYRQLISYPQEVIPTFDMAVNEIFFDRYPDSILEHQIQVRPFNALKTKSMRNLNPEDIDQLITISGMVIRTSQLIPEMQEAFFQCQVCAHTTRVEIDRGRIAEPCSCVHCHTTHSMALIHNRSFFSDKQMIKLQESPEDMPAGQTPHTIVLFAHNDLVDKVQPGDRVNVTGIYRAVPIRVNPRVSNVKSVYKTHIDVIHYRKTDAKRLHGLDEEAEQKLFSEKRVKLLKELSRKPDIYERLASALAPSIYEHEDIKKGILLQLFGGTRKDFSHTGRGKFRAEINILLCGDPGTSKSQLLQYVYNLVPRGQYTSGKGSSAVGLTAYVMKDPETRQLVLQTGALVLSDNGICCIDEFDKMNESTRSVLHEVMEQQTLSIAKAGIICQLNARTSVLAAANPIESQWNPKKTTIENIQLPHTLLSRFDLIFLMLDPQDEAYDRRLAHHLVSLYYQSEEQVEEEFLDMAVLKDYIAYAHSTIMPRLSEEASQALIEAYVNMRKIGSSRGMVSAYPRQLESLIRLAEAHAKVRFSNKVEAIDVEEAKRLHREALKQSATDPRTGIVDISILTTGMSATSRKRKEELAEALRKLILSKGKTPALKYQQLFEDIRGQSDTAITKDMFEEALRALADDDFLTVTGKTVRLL


Assays:
[1] = molecular target: macroH2A1.2 (endogenous) (mouse (endogenous in C2C12 and MEF)) (UniProt Q9QZQ8); experiment: proximity ligation; duolink PLA in situ in mouse embryonic fibroblasts (MEF); high-content screening microscopy (Operetta), nuclear spots counted with Harmony
[2] = molecular target: macroH2A1.2-GFP (UniProt Q9QZQ8); experiment: co-IP; lysates of C2C12 cells transfected with macroH2A-GFP vectors, synchronized in G1/early S by double thymidine arrest, 48 h after transfection; lysis buffer 20 mM Tris-HCl pH 8, 150 mM NaCl, 0.5 mM EDTA, 0.5% NP-40; GFP-binder (nanobody) beads, 4°C, 90 min; western blot for GFP and Mcm …
[3] = molecular target: macroH2A2-GFP (UniProt Q8CCK0); experiment: as above
[4] = molecular target: T1, Mcm4 (subunit of the Mcm DNA helicase complex) (mouse (endogenous in C2C12)); experiment: co-IP; lysates of C2C12 cells transfected with macroH2A-GFP vectors and synchronized in G1/S; endogenous Mcm4 precipitated with anti-Mcm4 on Protein G agarose beads, 2 h; anti-MIN antibody as negative control
[5] = molecular target: macroH2A2-V192F (GFP-tagged) (UniProt Q8CCK0); experiment: co-IP; lysates of C2C12 cells transfected with macroH2A-GFP vectors, synchronized in G1/early S by double thymidine arrest, 48 h after transfection; lysis buffer 20 mM Tris-HCl pH 8, 150 mM NaCl, 0.5 mM EDTA, 0.5% NP-40; GFP-binder (nanobody) beads, 4°C, 90 min; western blot for GFP and Mcm …

Row | binding [1] | binding [2] | binding [3] | binding [4] | binding [5] | Molecule
1 | binds | binds | no binding |  |  | Mcm2 (subunit of the Mcm DNA helicase complex) (from UniProt P97310 1-904)
2 |  |  |  | binds |  | macroH2A1.2-GFP (from UniProt Q9QZQ8-1 1-372)
3 |  |  |  | no binding |  | macroH2A2-GFP (from UniProt Q8CCK0 1-372)
4 |  | binds | no binding |  |  | Mcm5 (subunit of the Mcm DNA helicase complex) (protein, UniProt P49718 1-734) MSGFDDPGIFYSDSFGGDPGAEEGQARKSQLQRRFKEFLRQYRVGTDRTGFTFKYRDELKRHYNLGEYWIEVEMEDLASFDEELADHLHKQPAEHLQLLEEAAKEVADEVTRPRPAGDELLQDIQVMLKSDASPSSIRILKSDMMSHLVKIPGIIISASAVRAKATRISIQCRSCHNTLTNIAMRPGLEGYALPRKCNMDQAGRPKCPLDPYFIMPDKCKCVDFQTLKLQELPDAVPHGEMPRHMQLYCDRYLCDKVVPGNRVTIMGIYSIKKFGLNPSKGRDRVGVGIRSSYIRVLGIQVDTDGSGRSFAGSVSPQEEEEFRRLAALPNIYELISKSISPSIFGGMDMKKAIACLLFGGSRKRLPDGLTRRGDINLLMLGDPGTAKSQLLKFVEKCSPIGVYTSGKGSSAAGLTASVIRDPSSRNFIMEGGAMVLADGGVVCIDEFDKMREDDRVAIHEAMEQQTISIAKAGITTTLNSRCSVLAAANSVFGRWDETKGEDNIDFMPTILSRFDMIFIVKDEHNEERDMMLAKHVMTLHVSALTQTQAVEGEIDLAKMKKFIAYCRARCGPRLSAEAAEKLKNRYIIMRSGARQHERDSDRRSSIPITVRQLEAIVRIAEALSKMKLQPFATEADVEEALRLFQVSTLDAALSGNLSGVEGFTTQEDQEMLSRIEKQLKRRFAIGSQVSEHSIVQDFTKQKYPEHAIRKVLQLMLRRGEIQHRMQRKVLYRLK
5 |  | binds | no binding |  |  | Mcm4 (subunit of the Mcm DNA helicase complex) (protein, UniProt P49717 1-862) MSSPASTPSRRSSRRGRVTPTQSLRSEESRSSPNRRRRGEDSSTGELLPMPTSPGADLQSPPAQNALFSSPPQMHSLAIPLDFDVSSPLTYGTPSSRVEGTPRSGVRGTPVRQRPDLGSARKGLQVDLQSDGAAAEDIVPSEQSLGQKLVIWGTDVNVATCKENFQRFLQCFTDPLAKEEENVGIDITQPLYMQQLGEINITGEPFLNVNCEHIKSFSKNLYRQLISYPQEVIPTFDMAVNEIFFDRYPDSILEHQIQVRPFNALKTKSMRNLNPEDIDQLITISGMVIRTSQLIPEMQEAFFQCQVCAHTTRVEIDRGRIAEPCSCVHCHTTHSMALIHNRSFFSDKQMIKLQESPEDMPAGQTPHTIVLFAHNDLVDKVQPGDRVNVTGIYRAVPIRVNPRVSNVKSVYKTHIDVIHYRKTDAKRLHGLDEEAEQKLFSEKRVKLLKELSRKPDIYERLASALAPSIYEHEDIKKGILLQLFGGTRKDFSHTGRGKFRAEINILLCGDPGTSKSQLLQYVYNLVPRGQYTSGKGSSAVGLTAYVMKDPETRQLVLQTGALVLSDNGICCIDEFDKMNESTRSVLHEVMEQQTLSIAKAGIICQLNARTSVLAAANPIESQWNPKKTTIENIQLPHTLLSRFDLIFLMLDPQDEAYDRRLAHHLVSLYYQSEEQVEEEFLDMAVLKDYIAYAHSTIMPRLSEEASQALIEAYVNMRKIGSSRGMVSAYPRQLESLIRLAEAHAKVRFSNKVEAIDVEEAKRLHREALKQSATDPRTGIVDISILTTGMSATSRKRKEELAEALRKLILSKGKTPALKYQQLFEDIRGQSDTAITKDMFEEALRALADDDFLTVTGKTVRLL
6 |  | binds | no binding |  | binds | Mcm3 (subunit of the Mcm DNA helicase complex) (protein, UniProt P25206 1-812) MAGTVVLDDVELREAQRDYLDFLDDEEDQGIYQNKVRELISDNQYRLIVSVNDLRRKNEKRANRLLNNAFEELVAFQRALKDFVASIDATYAKQYEEFYIGLEGSFGSKHVSPRTLTSCFLSCVVCVEGIVTKCSLVRPKVVRSVHYCPATKKTIERRYSDLTTLVAFPSSSVYPTKDEENNPLETEYGLSVYKDHQTITIQEMPEKAPAGQLPRSVDVILDDDLVDKVKPGDRIQVVGTYRCLPGKKGCYTSGTFRTVLIACNVKQMSKDIQPAFSADDIAKIKKFSKTRSKDVFEQLARSLAPSIHGHDYVKKAILCLLLGGVERELENGSHIRGDINILLIGDPSVAKSQLLRYVLCTAPRAIPTTGRGSSGVGLTAAVTTDQETGERRLEAGAMVLADRGVVCIDEFDKMSDMDRTAIHEVMEQGRVTIAKAGIHARLNARCSVLAAANPVYGRYDQYKTPMENIGLQDSLLSRFDLLFIMLDQMDPEQDREISDHVLRMHQYRAPGEQDGDALPLGSSVDILATDDPDFTQDDQQDTRIYEKHDSLLHGTKKKKEKMVSAAFMKKYIHVAKIIKPTLTQESAAYIAEEYSRLRSQDSMSSDTARTSPVTARTLETLIRLATAHAKARMSKTVDLQDAEEAVELVQYAYFKKVLEKEKKRKKASEDESDLEDEEEKSQEDTEQKRKRRKTHAKDGESYDPYDFSEAETQMPQVHTPKTDDSQEKTDDSQETQDSQKVELSEPRLKAFKAALLEVFQEAHEQSVGMLHLTESINRNREEPFSSEEIQACLSRMQDDNQVMVSEGIVFLI
